Where a name gives a salt, the structure may show the parent alone. ± gives the standard deviation of the averaged measurements. The full ranking holds about 3,200 compounds; the median of “nuclei count (viability) relative to DMSO” is about 99, and the lowest 2% start at about 16. The list shows a part of the results.
What follows are compounds tested on U2OS (assay: nuclei count (viability) relative to DMSO (% of DMSO); higher = more viable cells). Conditions: 10 µM; 24 h.
Procedure: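 Primary image-based screen in U2OS cells: compounds at 10 uM for 24 h, then a 1 h o-propargyl-puromycin (OPP) pulse, click labelling, and high-throughput microscopy. Mean cytoplasmic OPP intensity and nuclei count were normalised to DMSO wells within each plate (DMSO = 100) and averaged over triplicate plates.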

How did the nuclei count turn out when O=C(CCCCC(=O)Nc1c(I)cc(I)c(C(=O)O)c1I)Nc1c(I)cc(I)c(C(=O)O)c1I [Iodipamide] was run?
The nuclei count was 108.

With CC(C)C1C2CCC(C2)C1N (stereo not given) as the compound, how does the nuclei count read?
The nuclei count was 104.

Which nuclei count does the source give for CO[C@@H]1[C@H](O)[C@@H](CO)O[C@H]1n1cnc2c(NC3CCCCC3)ncnc21 here?
The nuclei count was 102.

For CNCC[C@@H](Oc1ccccc1C)c1ccccc1 [Tomoxetine hydrochloride], which nuclei count is on record?
The nuclei count was 102 ± 3.3.

C[C@@H]1O[C@@H](O[C@H]2[C@H](Oc3cc(O)c4c(c3)O[C@H](c3ccc(O)cc3)CC4=O)O[C@H](CO)[C@@H](O)[C@@H]2O)[C@H](O)[C@H](O)[C@H]1O [Naringin (Naringoside)] was tested. Which nuclei count did it give?
Its nuclei count is 118.

How did the nuclei count turn out when Cn1cc(C2=C(c3cn(CCCSC(=N)N)c4ccccc34)C(=O)NC2=O)c2ccccc21 [Ro 31-8220 Mesylate] was run?
Its nuclei count is 29.7.

For Cn1cc(C2=C(c3cn(CCCSC(=N)N)c4ccccc34)C(=O)NC2=O)c2ccccc21 [Ro 31-8220 mesylate], which nuclei count is on record?
Its nuclei count is 10.6.

Which nuclei count does the source give for Nc1ccccc1NC(=O)CCCCCCC(=O)Nc1ccccc1 here?
The nuclei count was 84.1.

Which nuclei count does the source give for N[C@@H](CC(=O)N1CCn2c(nnc2C(F)(F)F)C1)Cc1cc(F)c(F)cc1F [Sitagliptin phosphate monohydrate] here?
Its nuclei count is 101.

Which nuclei count does the source give for Cn1cc(/C=C/C(=O)c2cccc(F)c2)cc1/C=C/C(=O)NO here?
The nuclei count was 92.3.

With N=C(N=C(N)N)N1CCOCC1 [Moroxidine hydrochloride] as the compound, how does the nuclei count read?
Its nuclei count is 102.

Which nuclei count does the source give for CC(=O)OCC(=O)[C@@]12OC3(CCCC3)O[C@@H]1C[C@H]1[C@@H]3CCC4=CC(=O)C=C[C@]4(C)[C@@]3(F)[C@@H](O)C[C@@]12C [Amcinonide] here?
Its nuclei count is 105.

How did the nuclei count turn out when COc1nc(C)cnc1NS(=O)(=O)c1cccnc1-c1ccc(-c2nnco2)cc1 [Zibotentan (ZD4054)] was run?
Its nuclei count is 107.

For CC(=O)Nc1ccc(OCC(O)CNC(C)C)cc1 (stereo not given) [Practolol], which nuclei count is on record?
Its nuclei count is 104.

Which nuclei count does the source give for CO/N=C(\C(=O)N[C@@H]1C(=O)N2C(C(=O)O)=C(CSC(=O)c3ccco3)CS[C@H]12)c1csc(N)n1 [Ceftiofur HCl] here?
The nuclei count was 102.

For N[C@@H]1CCN(O)C1=O, which nuclei count is on record?
The nuclei count was 106.

CN1[C@@H]2CC[C@H]1C[C@@H](OC(c1ccccc1)c1ccccc1)C2 [Benztropine mesylate] was tested. Which nuclei count did it give?
The nuclei count was 107 ± 5.7.

With O=C1NN(C(=O)Nc2ccc(Br)cc2)[C@@H](c2ccccc2)[C@@H]1c1ccccc1 as the compound, how does the nuclei count read?
The nuclei count was 94.8.

C[C@@H]1O[C@@H](OC[C@H]2O[C@@H](Oc3c(-c4ccc(O)c(O)c4)oc4cc(O)cc(O)c4c3=O)[C@H](O)[C@@H](O)[C@@H]2O)[C@H](O)[C@H](O)[C@H]1O [Rutin (Rutoside)] was tested. Which nuclei count did it give?
Its nuclei count is 102.

COc1ccnc2[nH]cc(C(=O)C(=O)N3CCN(C(=O)c4ccccc4)C[C@H]3C)c12 was tested. Which nuclei count did it give?
Its nuclei count is 98.8.

Source: the supplement of paper PMC8183993
